Source: PMC4336329 (PLoS ONE, 2015)
Screen size: about 310,000 compounds; about 2,200 (0.71%) showed an effect of 50% or more. Effects have a minus sign here. The list shows a part of the results.

Biological target: human ether-à-go-go-related gene (hERG) potassium channel (human, UniProt Q12809)
Experiment: primary screen, population patch clamp on CHO cells stably expressing hERG

human ether-à-go-go-related gene (hERG) potassium channel, sequence (Q12809 whole entry, looked up): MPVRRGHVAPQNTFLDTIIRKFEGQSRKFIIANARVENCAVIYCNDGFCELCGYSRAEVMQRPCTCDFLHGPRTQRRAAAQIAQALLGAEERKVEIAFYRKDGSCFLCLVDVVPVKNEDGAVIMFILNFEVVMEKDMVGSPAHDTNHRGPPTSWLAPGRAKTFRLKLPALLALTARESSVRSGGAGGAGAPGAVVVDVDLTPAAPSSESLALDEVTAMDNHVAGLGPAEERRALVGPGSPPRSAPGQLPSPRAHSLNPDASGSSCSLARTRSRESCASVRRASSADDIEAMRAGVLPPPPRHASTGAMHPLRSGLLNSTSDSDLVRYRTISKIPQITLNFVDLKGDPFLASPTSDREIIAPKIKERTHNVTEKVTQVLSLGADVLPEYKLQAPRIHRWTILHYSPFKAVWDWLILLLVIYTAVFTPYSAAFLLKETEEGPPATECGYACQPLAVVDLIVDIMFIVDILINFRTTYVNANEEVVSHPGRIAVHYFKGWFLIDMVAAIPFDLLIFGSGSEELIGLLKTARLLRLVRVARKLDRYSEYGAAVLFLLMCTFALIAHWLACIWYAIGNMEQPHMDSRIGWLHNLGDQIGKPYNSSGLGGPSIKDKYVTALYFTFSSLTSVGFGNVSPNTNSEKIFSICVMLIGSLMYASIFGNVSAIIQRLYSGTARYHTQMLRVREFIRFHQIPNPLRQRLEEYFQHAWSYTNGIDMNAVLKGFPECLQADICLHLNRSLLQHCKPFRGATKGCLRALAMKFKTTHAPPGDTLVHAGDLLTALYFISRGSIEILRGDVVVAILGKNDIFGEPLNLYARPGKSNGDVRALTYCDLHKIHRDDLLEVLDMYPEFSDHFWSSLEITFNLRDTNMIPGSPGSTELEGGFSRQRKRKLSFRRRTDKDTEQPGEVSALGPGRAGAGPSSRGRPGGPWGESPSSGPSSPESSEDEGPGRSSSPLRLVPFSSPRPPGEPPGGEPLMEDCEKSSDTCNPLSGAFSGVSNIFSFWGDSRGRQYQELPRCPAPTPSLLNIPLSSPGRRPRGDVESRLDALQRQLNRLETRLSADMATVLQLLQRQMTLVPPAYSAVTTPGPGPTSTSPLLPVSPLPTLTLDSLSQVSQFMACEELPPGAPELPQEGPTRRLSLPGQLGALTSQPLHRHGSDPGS

| Structure (SMILES) | hERG current change (%, negative = inhibition) at 1uM [%] |
| --- | --- |
| Cn1ncc(Cl)c1C(=O)N1CCC2(CC1)OCCO2 | -1.69 |
| CC(=O)NC[C@H]1CN(c2ccc(N3CCOCC3)c(F)c2)C(=O)O1 | 1.39 |
| Cc1c(N2C(=O)c3cccc4cccc(c34)C2=O)cnn1C | 4.45 |
| CCOC(=O)C1CCN(C(=O)c2cc3cc(Cl)ccc3[nH]2)CC1 | -1.34 |
| CC1CCCCN1S(=O)(=O)c1ccc(S(=O)(=O)N2CCCC2)cc1 (stereo not shown) | 13.5 |
| Cc1nc2ccccc2n1CC(=O)N/N=C\c1ccccn1 | 8.64 |
| COc1ccc(-c2csc(N(CCCN(C)C)C(=O)c3ccccc3F)n2)cc1.Cl | 6.7 |
| Cc1ccc(OCCNC(=O)c2cccc(Oc3ccc(C(F)(F)F)cc3[N+](=O)[O-])c2)cc1 | 12.3 |
| O=C(Nc1ccon1)c1ccc(OC2CCCC2)cc1 | 11.4 |
| Cc1c(NC(=S)NC(=O)c2ccccc2Cl)c(=O)n(-c2ccccc2)n1C | 20.5 |
| Cc1ccc(C2SCC(=O)N2c2ccccc2)cc1 (stereo not shown) | 10.8 |
| COc1ccc(C)cc1NC(=O)CSc1nnc(-c2ccccn2)n1Cc1ccco1 | -3.86 |
| Oc1ccc2oc3c(c2c1C=NCc1ccncc1)CCCC3 | 9.54 |
| Cc1ccc(OCC(=O)Nc2nnc(S(=O)(=O)N3CCC(C)CC3)s2)cc1 | 17.4 |
| O=C(O)c1ccc(S(=O)(=O)c2ccc3c(c2)C(=O)N(NC(=O)c2ccccc2)C3=O)cc1 | 16.9 |
| O=C(C(Cc1ccccc1)n1cccc1)N1CCN(c2ncccn2)CC1 (stereo not shown) | 6.86 |
| Cc1cc(Cl)c(OCCn2ccnc2)c(Br)c1.O=C(O)C(=O)O | 8.07 |
| O=c1c2cc(Cl)ccc2nc(-c2ccc(Cl)c(Cl)c2)n1O | 13.1 |
| COc1cc(C(=O)NCc2ccc3[nH]c(C)cc3c2)cc(OC)c1OC | 8.57 |
| COCCn1c(=S)[nH]c2cc(OC)c(OC)cc2c1=O | 3.58 |
| O=C(COC(=O)Cc1ccc(Cl)cc1)NCCc1ccccc1 | 6.75 |
| COc1cccc(S(=O)(=O)NCC(=O)Nc2ccc(C(C)(C)C)cc2)c1 | 9.36 |

| Structure (SMILES) | hERG current change (%, negative = inhibition) at 1uM [%] |
| --- | --- |
| Cn1c(Cc2ccccc2)nnc1SCC(=O)c1cccs1 | 4.24 |
| CCCCC1=CC2=CC(=O)C(C)(OC(=O)CC)C(=O)C2=CN1CCN1CCOCC1 (stereo not shown) | 10.2 |
| O=C(Nc1ccccc1C(F)(F)F)c1ccccn1 | 13.8 |
| CC1(OC(=O)c2ccc(Cl)nc2)C(=O)C=C2C=C3CCCN3C=C2C1=O (stereo not shown) | 10.2 |
| Cc1cc(N2CCOCC2)nc2ccccc12 | 0.719 |
| Cc1cccc(N(C)Cc2nnc(-c3cccc(Br)c3)o2)c1 | 11.9 |
| CN(C)C(=O)c1coc2nc3ccccc3nc12 | 0.616 |
| Cc1nc(NC(=O)/C=C/c2ccccc2)sc1C(=O)N1CCCCC1 | 7.05 |
| O=C(NCCCNC(=O)c1cnccn1)c1ccc(Br)cc1 | 4.26 |
| COc1ccc(OC)c(CN2CCC(CO)(CCOc3ccccc3)CC2)c1 | -30 |
| O=C(Cn1cnc(Cl)c1Cl)c1ccc(F)cc1 | 10.7 |
| Br.CCn1c(=N)n(CC(=O)C(C)(C)C)c2ccccc21 | 5.27 |
| CCOC(=O)c1ccc(NC(=S)Nc2cccc(C)n2)cc1 | 9.11 |
| O=c1[nH]c(=O)n(Cc2ccccc2)c2nc(-c3ccc(Oc4ccc(F)cc4)c([N+](=O)[O-])c3)n(CCO)c12 | -1.84 |
| CSC1=N/C(=C\c2cccc(F)c2)C(=O)S1 | 13 |
| CCOc1ccccc1NC(=O)C12CC3CC(C1)CC(c1ccc(C)cc1)(C3)C2 | -3.52 |
| Cc1ccc(C(=O)COC(=O)CN2C(=O)C3CC=CCC3C2=O)cc1[N+](=O)[O-] (stereo not shown) | 13.5 |
| Cc1ccc2[nH]c(C(=O)N/N=C/c3ccc([N+](=O)[O-])cc3)c(C)c2c1 | 11.1 |
| CN(CC(=O)Nc1ccc(Cl)cc1)C(=O)CNC(=O)Cc1cccc2ccccc12 | 24 |
| COc1ccc(NC(=O)C2CCCN(C(=O)Nc3ccc(OC)cc3)C2)cc1 (stereo not shown) | -3.31 |
| COC(=O)c1c(NC(=O)CSc2nnc(CNc3ccc(Cl)cc3)o2)sc(C)c1C | -3.65 |
| CSCC[C@H](NC(=O)[C@H]1N2C(=O)c3ccccc3C2SC1(C)C)C(=O)NCc1ccncc1 (stereo partly shown) | 2.82 |

| Structure (SMILES) | hERG current change (%, negative = inhibition) at 1uM [%] |
| --- | --- |
| COc1cccc(C2c3[nH]c4ccccc4c3C[C@H]3C(=O)N(CCCO)CC(=O)N23)c1OC (stereo partly shown) | 8.94 |
| N/C(=N\OC(=O)c1ccc2c(c1)OCO2)c1ccncc1 | 10.5 |
| CC1(C)CC(=O)C(C2C3=C(CC(C)(C)CC3=O)Oc3c(Br)cc(Br)cc32)=C(O)C1 (stereo not shown) | 20.7 |
| Cc1cccc(C(=O)N2CCN=C2SCc2ccc([N+](=O)[O-])cc2)c1 | -20.8 |
| O=c1c(Cc2ccc(F)cc2)c(O)ccn1C1CCCCC1 | 1.07 |
| CC(C)c1ccc(CNC(=O)CCc2ccccc2)cc1 | 7.63 |
| COc1cccc(CN(C(=O)c2ccco2)C2CCS(=O)(=O)C2)c1 (stereo not shown) | 6.03 |
| COc1cccc(OCC(=O)NNC(=O)C(=O)Nc2ccc(OC)cc2OC)c1 | 8.1 |
| COc1cc2c(cc1OC)C1=CC(=O)C(=O)N1C(C)(C)C2 | 13.3 |
| COc1ccc(C(=O)N/N=C(\C)CC(=O)Nc2ccc3c(c2)OCO3)cc1 | 1.77 |
| O=c1c(C(c2ccc(F)cc2)c2c(O)nc3n(c2=O)CCS3)c(O)nc2n1CCS2 | 9.15 |
| NC(=O)Cn1nc(-c2ccccc2)nc1-c1ccccc1 | 13.6 |
| Cc1ccc(CNC(=O)C(C)C2Sc3ccccc3NC2=O)cc1 (stereo not shown) | 10.2 |
| CC(c1ccccc1)C1CC(=O)N(Cc2ccccc2)C1=O (stereo not shown) | 6.38 |
| CCOC(=O)c1c(C=O)c(C)n(Cc2ccc(C)cc2)c1C | 17.6 |
| Cc1ccccc1CO/N=C/c1[nH]ncc1Br | 8.84 |
| Cc1cc(OCC(=O)NCc2cccnc2)c2c(C)cc(=O)oc2c1 | -2.33 |
| COC(=O)C1CSC(C(=O)OC)N1C(=O)Nc1ccc(Cl)c(Cl)c1 (stereo not shown) | 7.39 |
| COCc1cc(CN(C)C(=O)C2CCC(=O)N(Cc3cccc(OC)c3)C2)[nH]n1 (stereo not shown) | 11.9 |
| CCOC(=O)c1c(C)[nH]c(C(=O)OCC(=O)Nc2cc(C)nn2-c2ccccc2)c1C | 8.06 |
| COc1ncccc1C(=O)N1CCCC(N2CCN(c3ccc(F)cc3)CC2)C1 (stereo not shown) | -11.1 |
| O=C(CC12CC3CC(CC(C3)C1)C2)NC(=S)Nc1ccc(CN2CCOCC2)cc1 | 0.574 |

| Structure (SMILES) | hERG current change (%, negative = inhibition) at 1uM [%] |
| --- | --- |
| COc1ccc(-c2cn3nc(SCC(=O)NC4CCCCC4)ccc3n2)cc1 | 16.3 |
| O=C1NC(=O)N(c2ccc3c(c2)OCO3)C(=O)/C1=C/c1ccc(N2CCCC2)o1 | 9.37 |
| Cc1ccc(NC(=O)C(=O)NCC2CCCN2S(=O)(=O)c2cccs2)cc1 (stereo not shown) | 9.03 |
| COc1ccc(OCCCC(=O)OCC(=O)Nc2ccc(Cl)cn2)cc1 | 8.56 |
| Cn1c(/C(C#N)=C/c2cccc(O)c2)nc2ccccc21 | 13 |
| COc1c(Cl)cc(-c2noc(C)c2C(=O)NC(C)C)cc1Cl | 8.81 |
| COC1CCCCC1Nc1cccc(SC)c1 (stereo not shown) | 10.1 |
| Cc1cc(C)c(C(=O)NC2CCCc3c2cnn3-c2cccc(C)c2C)o1 (stereo not shown) | 4.8 |
| N#CCSc1nc2c(cc1C#N)CCCCCC2 | 16 |
| Cc1cc(=O)oc(C)c1C(=O)NC1CC(C)(C)NC(C)(C)C1 | 14.8 |
| CCCCOc1ccc(CNC(=O)NS(=O)(=O)c2ccc(OCC(C)C)cc2)cc1 | -2.25 |
| O=C(CCCc1ccccc1)NCc1ccc2c(c1)OCO2 | 8.58 |
| COC(=O)[C@@H](Cc1ccccc1)NC(=O)[C@H]1CCC(=O)N1C(=O)OCc1ccccc1 | 7.85 |
| COc1ccc(C(=O)CSc2nnc(-c3ccc(S(=O)(=O)N4CCOCC4)cc3)o2)cc1 | 6.38 |
| Cc1ccccc1CN1CCN(C(=O)c2ccco2)CC1.O=C(O)C(=O)O | 10.1 |
| COc1ccc2c(c1OC)C(=O)N1c3ccccc3C(=O)N(c3ccccc3)C21 (stereo not shown) | 5.08 |
| COc1cc(C(=O)N/N=C(\Cc2ncc[nH]2)c2ccccc2)cc(OC)c1OC | -15.4 |
| CS(=O)(=O)c1ccc2nc(NC(=O)CCS(=O)(=O)c3ccccc3)sc2c1 | 15.6 |
| CCOC(=O)C1CCN(c2c(NCCN3CCN(c4ccccc4)CC3)c(=O)c2=O)CC1 | 11.5 |
| CCN(CC)C(=O)COc1ccc(/C(C)=N/NC(=O)c2ccccc2Br)cc1 | 7.48 |
| CCN(CC)S(=O)(=O)c1cc(NC(=O)CCNC(=O)c2ccccc2Cl)ccc1C | 10.7 |
| Cc1ccc(SCC(=O)OCC(=O)N(CC(C)C)C2CCS(=O)(=O)C2)cc1C (stereo not shown) | 3.11 |
